According to paper PMC4336329 (PLoS ONE, 2015):
The campaign covered roughly 310,000 compounds. About 2,200 (0.71%) showed an effect of 50% or more. The effect is printed as a negative number. The list shows a part of the results.

target: human ether-à-go-go-related gene (hERG) potassium channel (human, UniProt Q12809); assay: primary screen, population patch clamp on CHO cells stably expressing hERG
Sequence (Q12809 whole entry, looked up): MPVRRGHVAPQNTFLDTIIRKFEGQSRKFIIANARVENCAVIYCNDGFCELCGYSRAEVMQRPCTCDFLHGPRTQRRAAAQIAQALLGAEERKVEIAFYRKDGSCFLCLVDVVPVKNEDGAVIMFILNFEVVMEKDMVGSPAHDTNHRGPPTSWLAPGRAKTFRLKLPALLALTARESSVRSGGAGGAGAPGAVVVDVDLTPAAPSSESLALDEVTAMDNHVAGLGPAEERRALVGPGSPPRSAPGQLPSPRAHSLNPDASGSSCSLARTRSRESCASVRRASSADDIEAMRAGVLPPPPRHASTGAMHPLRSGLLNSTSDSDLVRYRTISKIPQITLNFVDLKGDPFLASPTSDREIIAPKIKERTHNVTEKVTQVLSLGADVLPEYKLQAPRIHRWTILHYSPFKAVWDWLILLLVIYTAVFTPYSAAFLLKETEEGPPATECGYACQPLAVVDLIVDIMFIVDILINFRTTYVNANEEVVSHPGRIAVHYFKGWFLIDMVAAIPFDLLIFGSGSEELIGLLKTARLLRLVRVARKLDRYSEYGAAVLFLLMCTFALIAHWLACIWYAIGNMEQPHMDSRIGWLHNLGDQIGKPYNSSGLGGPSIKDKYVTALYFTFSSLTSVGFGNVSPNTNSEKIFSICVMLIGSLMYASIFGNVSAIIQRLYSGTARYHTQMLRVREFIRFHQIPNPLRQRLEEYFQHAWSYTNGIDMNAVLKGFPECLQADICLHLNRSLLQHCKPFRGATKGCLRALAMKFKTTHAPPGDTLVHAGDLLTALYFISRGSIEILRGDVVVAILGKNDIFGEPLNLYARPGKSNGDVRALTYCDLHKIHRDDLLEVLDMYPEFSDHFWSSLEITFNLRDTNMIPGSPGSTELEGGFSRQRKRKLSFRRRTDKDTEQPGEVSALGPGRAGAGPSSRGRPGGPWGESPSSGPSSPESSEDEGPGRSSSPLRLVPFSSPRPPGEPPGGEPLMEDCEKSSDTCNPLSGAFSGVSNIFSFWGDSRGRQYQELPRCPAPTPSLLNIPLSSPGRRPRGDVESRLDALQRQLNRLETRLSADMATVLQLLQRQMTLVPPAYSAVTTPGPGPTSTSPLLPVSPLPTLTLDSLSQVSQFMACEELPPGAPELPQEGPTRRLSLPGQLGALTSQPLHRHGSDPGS

SMILES	hERG current change (%, negative = inhibition) at 1uM [%]
O=C1OC(/C=C/c2ccc(Cl)cc2)=NC/1=C/c1ccco1	5.9
O=C(CCl)Nc1ccccc1C(=O)c1ccccc1	9.75
CC(Oc1ccc2c(-c3ccccc3)cc(=O)oc2c1)C(=O)NCCN1CCOCC1 (centres unmarked)	4.39
O=C(CC12CC3CC(CC(C3)C1)C2)NCC(=O)N1CCc2ccccc2C1	2.11
CCO[C@@H]1OC(C(=O)N2CCN(Cc3ccccc3)CC2)=C[C@H](C2CC2)[C@H]1CCCO	2.43
Nc1nc(N)c(N=Nc2ccc(S(N)(=O)=O)cc2)c(=O)[nH]1	13.1
CC(/C=N\NC(=O)c1ccc(C)nc1)=C\c1ccccc1	19.6
O=C(NC(=S)Nc1ccccc1N1CCCC1)c1ccc([N+](=O)[O-])cc1	15.4
COc1ccc(CSc2nnc(Cc3sc(-c4ccccc4)nc3-c3ccccc3)o2)cc1	13.1
CCOC(=O)c1sc(N2C(=O)C(O)=C(C(=O)c3ccc(C)o3)C2c2cccc([N+](=O)[O-])c2)nc1C (centres unmarked)	14.6
COc1ccc(N2CCN(C(=O)c3ccc4c(c3)[nH]c(=S)n3c5ccccc5nc43)CC2)cc1	10.2
COc1ccc(C2C(C(=O)N3CCN(c4ccccn4)CC3)CCC(=O)N2c2cc(OC)c(OC)c(OC)c2)cc1 (centres unmarked)	10
Cc1[nH]nc(SCC(=O)NCc2ccc(Cl)cc2)c1[N+](=O)[O-]	12
CCOC(=O)c1ccc(N2C(=O)CC(Nc3ccc(O)cc3)C2=O)cc1 (centres unmarked)	10.9
COc1ccc(OC)c(S(=O)(=O)Nc2c(F)cccc2F)c1	17.7
Cl.Clc1cccc(Cl)c1CNC1CCCC1	9.78
O=C(Nc1cc(F)ccc1F)c1cccc(-n2cnnn2)c1	8.01
CC(C)(C)c1ccc(OCC(=O)N/N=C/c2ccc(N3CCOCC3)cc2)cc1	-6.06
COc1ccc(NS(=O)(=O)c2cccc(C(=O)NNC(=O)c3ccc(NC(C)=O)cc3)c2)cc1	-11.6
CSc1ccc(/C=C2\C(=N)N3N=C(CC(=O)N4CCCCC4)SC3=NC2=O)cc1	19
CCOc1ccccc1OCCCC(=O)NNC(=O)c1cc(C)oc1C	12.2
CCCCCCC1/C(=N/O)CCC1C(=O)OC (centres unmarked)	9.46
Cc1occc1C(=O)NNC(=O)C1CCCCC1	9.28
